PMC4336329 (PLoS ONE, 2015)
The campaign covered roughly 310,000 compounds. About 2,200 (0.71%) showed an effect of 50% or more. The effect is printed as a negative number. The list shows a part of the results.

Target: human ether-à-go-go-related gene (hERG) potassium channel (human, UniProt Q12809)
Assay: primary screen, population patch clamp on CHO cells stably expressing hERG

human ether-à-go-go-related gene (hERG) potassium channel, sequence (Q12809 whole entry, looked up): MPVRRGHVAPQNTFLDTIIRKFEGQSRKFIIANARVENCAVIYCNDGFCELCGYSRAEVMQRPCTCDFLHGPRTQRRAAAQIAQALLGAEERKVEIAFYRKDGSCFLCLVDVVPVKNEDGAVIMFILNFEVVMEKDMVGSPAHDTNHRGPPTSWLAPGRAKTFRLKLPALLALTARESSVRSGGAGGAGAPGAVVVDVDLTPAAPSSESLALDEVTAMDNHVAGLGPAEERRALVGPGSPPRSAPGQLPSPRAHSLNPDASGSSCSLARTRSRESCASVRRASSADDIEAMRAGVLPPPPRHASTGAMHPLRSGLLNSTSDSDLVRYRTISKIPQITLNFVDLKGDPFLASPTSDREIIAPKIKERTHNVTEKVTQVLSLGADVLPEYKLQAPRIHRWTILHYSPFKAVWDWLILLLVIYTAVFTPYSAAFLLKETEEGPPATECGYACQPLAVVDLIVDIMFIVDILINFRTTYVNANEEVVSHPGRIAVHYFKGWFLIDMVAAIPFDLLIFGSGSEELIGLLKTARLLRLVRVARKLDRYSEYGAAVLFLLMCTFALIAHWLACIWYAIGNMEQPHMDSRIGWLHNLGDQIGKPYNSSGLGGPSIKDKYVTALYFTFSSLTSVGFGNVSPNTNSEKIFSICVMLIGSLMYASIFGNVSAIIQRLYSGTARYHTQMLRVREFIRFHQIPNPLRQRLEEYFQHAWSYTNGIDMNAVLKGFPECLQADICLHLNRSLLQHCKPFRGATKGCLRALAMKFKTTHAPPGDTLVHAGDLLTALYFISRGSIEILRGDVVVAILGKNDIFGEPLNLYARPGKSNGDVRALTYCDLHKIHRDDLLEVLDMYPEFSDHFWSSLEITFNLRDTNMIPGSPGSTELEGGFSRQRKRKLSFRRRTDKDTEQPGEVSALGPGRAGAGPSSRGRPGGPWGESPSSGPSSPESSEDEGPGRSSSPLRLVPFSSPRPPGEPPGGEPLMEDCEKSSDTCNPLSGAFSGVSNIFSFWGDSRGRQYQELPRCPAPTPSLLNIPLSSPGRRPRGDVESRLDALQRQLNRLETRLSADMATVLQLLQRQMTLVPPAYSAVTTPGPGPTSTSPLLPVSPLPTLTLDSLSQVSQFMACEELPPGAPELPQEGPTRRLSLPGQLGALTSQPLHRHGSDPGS

For `CCOC(=O)c1ccc(N2C=C(C(=O)OC)C(c3cccc(O)c3)C(C(=O)OC)=C2)cc1`, which “hERG current change (%, negative = inhibition) at 1uM” value is on record?
The value was 9.67%.

`O=C(Nc1ccc(Cl)c([N+](=O)[O-])c1)c1ccncc1` was tested. Which “hERG current change (%, negative = inhibition) at 1uM” value did it give?
The value was 1.24%.

How did the “hERG current change (%, negative = inhibition) at 1uM” value turn out when `CCCCn1c2c(c(=O)n(C)c1=O)C(CC(=O)OCC(=O)Nc1cccc(C(F)(F)F)c1)C(=O)N2` (stereo not shown) was run?
The value was 2.43%.

Which “hERG current change (%, negative = inhibition) at 1uM” value does the source give for `COC(=O)c1c(NC(=O)c2ccc(C)cc2)sc(Cc2ccccc2)c1C` here?
The value was 16.4%.

Which “hERG current change (%, negative = inhibition) at 1uM” value does the source give for `O=C(O)C1CC(c2ccccc2)=NO1` (stereo not shown) here?
Its value is 7.87%.

For `CCc1nc2ccccc2c(C(=O)OCC(=O)C(C)(C)C)c1C`, which “hERG current change (%, negative = inhibition) at 1uM” value is on record?
Its value is 9.77%.

`CCOC(=O)C1CCN(C=C2C(=O)N(C)C(=S)N(C)C2=O)CC1` was tested. Which “hERG current change (%, negative = inhibition) at 1uM” value did it give?
Its value is 6.1%.

Which “hERG current change (%, negative = inhibition) at 1uM” value does the source give for `COc1ccc(-c2nc(CSCC(=O)N3CCc4ccccc4C3)c(C)o2)cc1OC` here?
Its value is 1.32%.

For `COc1ccc(COC(=O)N/N=C(\C)CC(=O)Nc2c(C)cc(C)cc2C)cc1`, which “hERG current change (%, negative = inhibition) at 1uM” value is on record?
Its value is 10.7%.

Which “hERG current change (%, negative = inhibition) at 1uM” value does the source give for `CCC(C(=O)OC)n1cnc2c(cnn2-c2ccc(Cl)cc2)c1=O` (stereo not shown) here?
Its value is 7.2%.

`COc1ccccc1N1CCN(C2CC(=O)N(C)C2=O)CC1` (stereo not shown) was tested. Which “hERG current change (%, negative = inhibition) at 1uM” value did it give?
The value was 15.7%.

How did the “hERG current change (%, negative = inhibition) at 1uM” value turn out when `NS(=O)(=O)c1ccc(CCNC(=O)c2ccc(CS(=O)(=O)c3ccc(Br)cc3)o2)cc1` was run?
Its value is 48.8%.

With `COc1cccc(CNC(=O)CCn2ccc3cc(S(=O)(=O)N4CCCC4)ccc32)c1` as the compound, how does the “hERG current change (%, negative = inhibition) at 1uM” value read?
Its value is 12.4%.

How did the “hERG current change (%, negative = inhibition) at 1uM” value turn out when `Cc1ccc(N(CC(=O)NCc2ccc(F)cc2)C(=O)c2csnn2)cc1C` was run?
Its value is 8.08%.

For `CCOC(=O)c1cc2c(s1)-c1ccccc1CC2`, which “hERG current change (%, negative = inhibition) at 1uM” value is on record?
Its value is 5.53%.

How did the “hERG current change (%, negative = inhibition) at 1uM” value turn out when `COc1ccccc1NC(=S)N(Cc1cccs1)C1CCCC1` was run?
Its value is 4.67%.

`O=C(Cn1c(-c2cscn2)nc2ccccc21)Nc1ccc2ccccc2c1` was tested. Which “hERG current change (%, negative = inhibition) at 1uM” value did it give?
Its value is -5.3%.

How did the “hERG current change (%, negative = inhibition) at 1uM” value turn out when `N#Cc1cn(CCOc2ccc(F)cc2)c2ccccc12` was run?
Its value is 5.93%.

With `CCCCC(O)(C(NC=O)C(=O)OC)C(F)(F)F` (stereo not shown) as the compound, how does the “hERG current change (%, negative = inhibition) at 1uM” value read?
Its value is 13.4%.

With `CCc1nccn1C(=O)c1cnn2c(C(F)F)cc(-c3ccc(C)cc3)nc12` as the compound, how does the “hERG current change (%, negative = inhibition) at 1uM” value read?
The value was 8.51%.

With `Cc1cc(N2CCOCC2)nc2cc(O)ccc12` as the compound, how does the “hERG current change (%, negative = inhibition) at 1uM” value read?
Its value is 8.39%.

`COc1ccccc1CNC(=O)CSc1nn2c(=O)c(C(C)(C)C)nnc2s1` was tested. Which “hERG current change (%, negative = inhibition) at 1uM” value did it give?
The value was 14.3%.

How did the “hERG current change (%, negative = inhibition) at 1uM” value turn out when `COc1ccc(-c2nc(CS(=O)CC(=O)NCCN3CCCCCC3)c(C)o2)cc1OC` (stereo not shown) was run?
Its value is 3.47%.

For `Cc1ccc(/C=C/C(=O)OCC(=O)Nc2ccc3[nH]c(=O)[nH]c3c2)o1`, which “hERG current change (%, negative = inhibition) at 1uM” value is on record?
Its value is 1.82%.

How did the “hERG current change (%, negative = inhibition) at 1uM” value turn out when `COc1ccc(CNC(=O)Cn2cc(C(F)(F)F)ccc2=O)cc1OC` was run?
The value was 12%.

`Cc1c(C(=O)Nc2nnc(C3CC3)s2)oc2ccccc12` was tested. Which “hERG current change (%, negative = inhibition) at 1uM” value did it give?
Its value is 12%.

For `O=C(COc1cccc(Cl)c1)Nc1cc(S(=O)(=O)N2CCOCC2)ccc1N1CCOCC1`, which “hERG current change (%, negative = inhibition) at 1uM” value is on record?
The value was -9.87%.

`COC(=O)C(O)(CC(=O)Nc1ccccc1OC)C(F)(F)F` (stereo not shown) was tested. Which “hERG current change (%, negative = inhibition) at 1uM” value did it give?
The value was 5.94%.

With `O=C(CN1CCC(NC(=O)c2ccc(F)cc2)CC1)NCc1ccccc1F` as the compound, how does the “hERG current change (%, negative = inhibition) at 1uM” value read?
Its value is -0.422%.

For `CCC(=O)N1CCN=C1SCc1cccc(F)c1`, which “hERG current change (%, negative = inhibition) at 1uM” value is on record?
The value was 11.5%.

For `COc1ccc(-c2c(-c3cc(OC)cc(OC)c3)n(C)c3ccc(-c4cc(F)cc(OC)c4)cc23)cc1`, which “hERG current change (%, negative = inhibition) at 1uM” value is on record?
The value was 20%.

How did the “hERG current change (%, negative = inhibition) at 1uM” value turn out when `CCOC(=O)c1ccc(N=CC2=C(O)CC(C)(C)CC2=O)cc1` was run?
Its value is 6.54%.

Which “hERG current change (%, negative = inhibition) at 1uM” value does the source give for `COc1cc(OC)cc(C(=O)Nc2ccccc2-c2nnn(CC(N)=O)n2)c1` here?
The value was 6.37%.

With `COc1ccc(C(C(=O)NC(C)(C)C)N(CCC(C)C)C(=O)CCC(=O)Nc2cc(C)on2)cc1` (stereo not shown) as the compound, how does the “hERG current change (%, negative = inhibition) at 1uM” value read?
Its value is 8.23%.

With `CCOC(=O)c1c(OCCO)nn(-c2ccc(Cl)cc2)c1N` as the compound, how does the “hERG current change (%, negative = inhibition) at 1uM” value read?
Its value is 7.71%.

`CC1(C)CC(=O)C(C(=S)Nc2ccccc2)=C(NCCN2CCOCC2)C1` was tested. Which “hERG current change (%, negative = inhibition) at 1uM” value did it give?
The value was -13.3%.

With `Oc1c(N=Nc2ccccc2)sc2ccccc12` as the compound, how does the “hERG current change (%, negative = inhibition) at 1uM” value read?
The value was -7.63%.

How did the “hERG current change (%, negative = inhibition) at 1uM” value turn out when `CN(C(=S)NC(=O)c1ccccc1Br)C1CCCCC1` was run?
The value was 6.76%.

`COC(=O)c1ccsc1NC(=O)C1COc2ccccc2O1` (stereo not shown) was tested. Which “hERG current change (%, negative = inhibition) at 1uM” value did it give?
Its value is 11.2%.

Which “hERG current change (%, negative = inhibition) at 1uM” value does the source give for `Cc1ccoc1C(=O)N1CCCC(CO)(Cc2ccc(F)cc2)C1` (stereo not shown) here?
Its value is 4.74%.

Which “hERG current change (%, negative = inhibition) at 1uM” value does the source give for `COc1ccc(CSc2nc(CSC)cc(N3CCOCC3)n2)cc1` here?
The value was 7.83%.

Which “hERG current change (%, negative = inhibition) at 1uM” value does the source give for `O=C(Nc1ccc2c(c1)OCCO2)C1CCN(S(=O)(=O)c2cccc3nsnc23)CC1` here?
Its value is 15.1%.

`COc1ccc(C(=O)NCCn2ccc3ccccc32)cc1` was tested. Which “hERG current change (%, negative = inhibition) at 1uM” value did it give?
The value was 5.77%.
